The full ranking holds about 33,000 sequences; the median of “E-score (-0.5 to 0.5)” is about -0.056, and the highest 2% start at about 0.38. The list shows a part of the results.
biological target: Stb4 (UniProt P50104); assay: PBM E-score (8-mer binding enrichment) (E-score (-0.5 to 0.5)); higher = stronger / more preferred TF binding; most listed sequences are background and not binding sites; conditions: protein concentration: 200 nM; construct: GST-DNA-binding domain
How it was run: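 E-scores (a modified Wilcoxon-Mann-Whitney statistic) were assigned by the Universal PBM Analysis Suite to every ungapped eight-base word pooled with its reverse complement. The input came from universal all-10-mer Agilent arrays made double-stranded by primer extension and probed with GST-tagged yeast transcription factors at about 100-200 nM. Fluorescent anti-GST detected bound protein, and masliner normalised the scans.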

Sequence	PBM E-score
AATACGGA	0.257
GGCGCCTA	-0.217
TAGAGCTA	-0.321
AACGAGAG	-0.154
ATGGTACG	-0.0603
GGTCTCAC	0.00049
CCCACGGA	0.215
AGATTAAT	-0.0514
AAGGGTGT	0.00314
GTCTACAA	-0.146
AGACCCAG	-0.17
ACCCGCCA	0.0903
AGCTGCCG	0.246
ACCCCAGA	-0.237
GAATAATC	0.0871
CTCGGACC	0.412
CAGATTAA	0.0478
GTCTGAAA	-0.0933
AACCGTAA	0.0886
CTAAGCGC	-0.129
CAGCCTGC	-0.0896
ACAAGCAA	-0.275
AAGGACGG	0.0564
CGATGTAC	0.104
CCGTTCCG	0.431

Sequence	PBM E-score
TCCCCCAA	-0.253
TGGCGGAA	0.218
CTGTGATC	0.0393
ACCGGAAA	0.384
GGATTTAA	0.208
AAATCTAT	-0.00166
GCCCATAC	-0.201
ATCCCCGC	0.248
AAGCCAGG	-0.215
GATTATAC	0.155
ATAGGTGA	-0.155
CTACTCGC	-0.00316
TGCTGCAA	-0.246
CCGACCAG	0.254
CAGAGCAA	-0.0378
CCGGAACC	0.41
CTGGTGCA	-0.279
CATGACTC	-0.135
GGCGTCCC	-0.0274
ATAATCTA	0.0816
CGCCCTAA	-0.191
CAGCCAGC	-0.218
ATAAGACC	-0.03
ACCGGCCT	0.025
CGCCGGAA	0.392

Sequence	PBM E-score
AACCTTGA	-0.0605
GACACCAA	-0.00807
CTGTCCCC	-0.191
CTTTAATC	-0.117
CAAGGGAA	-0.173
GACTGTCA	-0.0239
TATAGCAA	-0.0232
CAGAAGTC	-0.174
GTCTTAAA	-0.101
ACCGCGCC	0.0314
CACGAAAG	-0.148
AGTGAACC	0.11
CATACGTC	-0.0287
AACATAAC	0.0406
CCGATTAG	0.299
CCATTTAG	-0.154
ATCCTGGG	-0.093
TCTTGTAA	-0.0477
CACCTGGA	-0.254
CTCGGTTA	0.44
ACGGAAGG	0.313
GGTCTGAC	-0.002
CTGTCCAA	-0.166
CGAAAGTA	0.134
CTTACTTC	0.0292

Sequence	PBM E-score
CCACCCTA	-0.112
GGGCGCCA	-0.101
GACTCGGA	0.451
CCATTTCG	0.159
CCTAGAGA	-0.275
CCTACGAG	-0.131
TCGGCGCA	0.262
GCAGCTGC	0.252
CTAGTGTA	-0.296
AAAAACCC	0.0986
GATGCTCC	0.145
CTATCAAA	-0.0734
TCAAGCCA	-0.0789
CTCCGGGC	0.131
CCCCGAGC	0.371
AGATGCTG	-0.18
GAAAGGTA	-0.00797
GCGTGCCC	-0.0774
CTCAAAAA	0.00307
AAACTAGG	-0.0954
GTTGAACA	-0.0395
GGTCCCCA	-0.0796
TAAGAAAA	0.0397
CGTTCCAA	-0.0817
CCACAAAC	0.121

Sequence	PBM E-score
GCCCGTAC	-0.0102
AGCCCTCA	-0.0656
GTTTCATA	0.00836
CGCAACGA	0.011
ATTTCAGA	-0.192
AACTTCGG	0.408
CAGATGCG	-0.0769
TTCGGCAA	0.454
ACTGGTAT	-0.159
ACTCGACA	0.0107
CTTTATAA	-0.203
CTACGATC	0.0347
ACAATTGC	0.0137
ACATTTAC	-0.145
CGGCGTAG	-0.126
ACCGGGTC	0.187
CTAAAGGC	-0.255
GGGCATAC	0.124
CGTTTTTA	-0.0102
CCTAGTGA	-0.188
ATTCAGAC	-0.2
CTCTGTCA	-0.211
GGTCTGCA	0.0252
CGCTACGC	-0.0382
ACGCTCAT	-0.276

Sequence	PBM E-score
ATTTCGGG	0.39
AAAGGGAC	-0.154
GGATGAAA	0.165
CTTCTAGC	-0.135
CATGGAAC	-0.133
CTCAAGAA	-0.116
CCACTGCC	-0.0125
AACACCAT	-0.049
ACAAAAAT	-0.082
AGAAGTGA	-0.136
ATCTTAGC	-0.119
CGGCGTAC	0.149
ATAACGCG	0.0342
AACGCAAA	-0.0857
GCATTAAA	-0.189
CCGAAGGC	0.336
AGATGGCC	0.0103
GATAGCGC	0.0623
ACTACTCG	0.148
AGAACCAT	-0.159
GATCTGCA	0.0238
TAATTTAA	0.148
CATAGTCC	-0.139
TCTTCTAA	-0.123
ACGCAAGC	-0.129

Sequence	PBM E-score
ATGATCAC	-0.0197
ACGCCGCT	-0.0109
CACCGTGA	-0.0349
AAACCTAC	0.042
ACCCGCAG	0.246
AACATATT	-0.0423
GGTCATTA	-0.0634
AAGCCGCC	-0.0244
AGAGTACC	-0.0325
ACTAAGGG	-0.159
AATACCTC	-0.03
CTTCTCTA	-0.123
AGCAGTTA	-0.175
ATTTAGGG	0.0757
AGGATACT	-0.145
ACGCATTA	-0.0608
ACCAGCAT	-0.183
AGAATAGA	-0.127
ACGGAAGT	0.362
CGGATGTC	0.426
CCGTCACC	0.155
ACATCAGG	-0.177
AACGTTCT	-0.0762
ATGCCATA	-0.315
AGAGGGCT	-0.287

Sequence	PBM E-score
CACTATCC	0.219
CCGATGGC	0.345
AAAAAAGC	-0.178
GATCGGCA	0.349
CAATTCTG	-0.147
TGCTAAAA	-0.205
CGCGACCC	0.00864
TCGACAGA	-0.169
AATGGTCA	-0.124
GCTGAATA	-0.243
ATTGTTTG	-0.152
TCAGTTCA	-0.146
AAGGTAAC	-0.102
ACTTGCAA	-0.0701
ATGGGCAA	-0.022
TGGGCACA	-0.164
GTGTGAAC	0.0138
AACCCTGT	-0.091
GATTGCTA	-0.122
AGCCCTTG	-0.148
TAGATCGA	-0.227
GGGAGAAC	0.0243
CATTTGCG	0.0241
AATACTCT	-0.0803
ATCCCTCA	-0.102

Sequence	PBM E-score
CTAGCCAA	-0.0164
AGTGCGAA	-0.0951
CGTACCCA	-0.0712
AGAATCTC	0.00656
TACGTTAA	-0.173
ATTACGGC	0.0709
GTTGGAAA	0.0285
GCTCATTA	0.0211
ATAATTTA	0.155
ACGTCCAG	-0.0996
AGAAGACT	-0.237
ACTGCAGG	-0.286
GGGTTCCA	-0.0875
GTGCTATA	-0.139
CTTCAAGC	-0.303
GAGCCCTC	-0.163
CAGAGTTA	-0.0469
ACGATTGA	-0.0991
CCACCCGA	0.379
CGACCGTA	0.0196
CCGGCCCG	0.392
GGTATACA	0.0214
ATAGGAAC	-0.12
ATACCTTG	-0.0599
AAACAGAG	-0.0864

Sequence	PBM E-score
AGGCATAT	-0.193
CGACCTTA	-0.00111
AAGTTCTA	0.0321
AATAGGTA	-0.152
TTATTGAA	-0.272
CGGTGGCA	-0.0748
AAAACCAT	-0.16
AGATGTGC	-0.0387
AGCACCAG	-0.269
TAACGAGA	-0.139
GCACCACA	-0.0162
CCGCCTCC	0.133
CCCATGGA	-0.247
CATTGAAA	-0.0319
AGCTGTAC	-0.0586
ATTCATGG	-0.228
GCCGCTAA	0.0904
CGCCAAGA	-0.172
ATACATGA	-0.212
CAATTCTA	-0.196
ACCTGCAA	-0.281
ACCTAGGA	-0.0137
GCCGGCAA	0.32
CTATTGTA	-0.0755
AAAGGGAG	-0.189

Sequence	PBM E-score
CGCTTGTA	0.134
GAGTCACC	-0.192
AACTTACT	-0.168
GGAATGCC	0.174
ACGCCAGG	-0.0466
CAGCTAAC	-0.244
CCGATGTC	0.254
TCATCTCA	-0.067
ATATCTTA	-0.103
ACACTGGG	-0.184
CGAGGGCA	0.0943
GCACACGA	-0.128
ATCGCTAA	-0.143
CACCTGTA	-0.173
GGAGGCAC	0.0561
ACTTACCG	0.366
ATACAAAG	0.037
ACACAACG	-0.0126
ATCGGTGC	0.0289
AATCATTC	-0.0237
AACTCGCC	0.00739
ACTAGACC	-0.124
GTGGGTCA	-0.244
AAGGCATA	-0.121
AAGGCAGT	-0.173

Sequence	PBM E-score
AAGCCGTA	0.0243
AGACCGAA	0.244
GAATAGAA	0.0248
CTGCTAAG	-0.138
GATATCGC	-0.0806
ACGCATGG	-0.0652
ACGTACGG	0.173
CCTCAGGA	-0.168
CCTTCTGA	-0.219
ATCTAGAA	-0.117
ACTCTTTC	-0.0797
GCTCGCAA	-0.146
AAAACCCA	-0.0723
ACTGGGTG	-0.115
ACTCGATG	-0.18
CGCAGGGA	-0.216
CAGGCCTG	-0.118
ATAAGCCC	-0.0887
GGATACGA	0.0249
ATATACGG	0.125
CCCCAAAA	-0.108
CTTCGTAA	-0.178
CCTAATAA	-0.202
CATCTAGG	-0.212
ATGATAAA	0.00365

Sequence	PBM E-score
CTGCATTC	0.00558
AAGTCGTC	0.0514
CAACACAC	-0.189
GACAGAGC	-0.122
AGGGAAAA	-0.164
AAAAAGGG	0.0961
AGAGGGTC	-0.234
AACTGGGA	-0.14
GCTACCCA	-0.0281
AGTGTAGA	-0.338
TACCCCTA	-0.137
CGCAAGCG	-0.124
GGTCGGAC	0.144
AGCCGTTC	0.0794
TAGATCTA	-0.187
ATATCAAA	0.0972
TATGCGGA	0.248
ACGGATTC	0.178
CGCACGCA	-0.137
AGCTCGGA	0.454
CAGGGACA	-0.114
GTATTTCA	-0.0703
GCTGGCCA	-0.0829
ACAGACAA	0.0517
CCTACTTA	-0.262

Sequence	PBM E-score
AGACGGGC	0.0785
AAGTCTCT	-0.285
CAATGTGA	-0.241
GAGCTCAC	-0.208
ATCTACAG	0.0365
CGCTGGGA	-0.039
AAATATCG	0.17
TCTGTAAA	0.0311
ACCAAGGT	-0.125
ACCATCCT	-0.249
CACCCCAC	0.0245
AGTGTTGG	0.0126
TAGGAAGA	-0.21
CGTTGTTA	-0.092
GAGGCGCC	-0.0953
CGAGTACG	0.042
CAACTACG	-0.0502
AATCAGCT	-0.0678
CGTGACGC	-0.134

Source: the supplement of paper PMC3334620
